# Experimental data: the supplement of paper PMC8728848
# This is one part of the list.
# Columns and labels:
# Assay in all cases: glycan array binding signal (z-score within array); higher = stronger binding
# Conditions in all cases: glycan notation: IUPAC condensed, linker removed
# [1] = target: Gal(b1-3)GalNAc(a1-3)[Fuc(a1-2)]Gal(b1-4)Glc
# Outline: (§1)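 The binding signal is a Z-score computed within each array. Data were drawn from 3228 arrays in the Consortium for Functional Glycomics database, restricted to those with a known protein sequence. Scores were averaged over arrays of the same protein sequence at different concentrations or buffers, and over linkers, and negative values can be taken as non-binding.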
# [2] = target: Gal(b1-3)GalNAc(a1-3)[Fuc(a1-2)]Gal(b1-4)GlcNAc
# Outline: as §1
# [3] = target: Gal(b1-3)GalNAc(b1-3)Gal(a1-4)Gal(b1-4)Glc
# Outline: as §1
# [4] = target: Gal(b1-3)GalNAc(b1-4)Gal(b1-4)Glc
# Outline: as §1
# [5] = target: Gal(b1-3)GalNAc(b1-4)[Neu5Ac(a2-3)]Gal(b1-4)Glc
# Outline: as §1
# Gal(b1-3)GlcNAc = target: Gal(b1-3)GlcNAc
# Outline: as §1
# [6] = target: Gal(b1-3)GlcNAc(a1-6)Gal(b1-4)GlcNAc
# Outline: as §1
# [7] = target: Gal(b1-3)GlcNAc(b1-2)Man(a1-3)[Gal(b1-3)GlcNAc(b1-2)Man(a1-6)]Man(b1-4)GlcNAc(b1-4)GlcNAc
# Outline: as §1
# [8] = target: Gal(b1-3)GlcNAc(b1-2)Man(a1-3)[Gal(b1-3)GlcNAc(b1-2)Man(a1-6)]Man(b1-4)GlcNAc(b1-4)[Fuc(a1-6)]GlcNAc
# Outline: as §1
# [9] = target: Gal(b1-3)GlcNAc(b1-2)[Gal(b1-3)GlcNAc(b1-6)]Man(a1-6)[Gal(b1-3)GlcNAc(b1-2)Man(a1-3)]Man(b1-4)GlcNAc(b1-4)GlcNAc
# Outline: as §1
# [10] = target: Gal(b1-3)GlcNAc(b1-3)Gal(b1-3)GlcNAc
# Outline: as §1
# [11] = target: Gal(b1-3)GlcNAc(b1-3)Gal(b1-4)Glc
# Outline: as §1
# [12] = target: Gal(b1-3)GlcNAc(b1-3)Gal(b1-4)GlcNAc
# Outline: as §1
# [13] = target: Gal(b1-3)GlcNAc(b1-3)Gal(b1-4)GlcNAc(b1-6)[Gal(b1-3)GlcNAc(b1-3)]Gal(b1-4)Glc
# Outline: as §1
# [14] = target: Gal(b1-3)GlcNAc(b1-3)Gal(b1-4)[Fuc(a1-3)]GlcNAc(b1-6)[Gal(b1-3)GlcNAc(b1-3)]Gal(b1-4)Glc
# Outline: as §1
# [15] = target: Gal(b1-3)GlcNAc(b1-3)GalNAc
# Outline: as §1
# [16] = target: Gal(b1-3)GlcNAc(b1-6)Gal(b1-4)GlcNAc
# Outline: as §1
# [17] = target: Gal(b1-3)[Fuc(a1-4)]GlcNAc
# Outline: as §1
# [18] = target: Gal(b1-3)[Fuc(a1-4)]GlcNAc(b1-2)Man(a1-3)[Gal(b1-3)[Fuc(a1-4)]GlcNAc(b1-2)Man(a1-6)]Man(b1-4)GlcNAc(b1-4)GlcNAc
# Outline: as §1
# [19] = target: Gal(b1-3)[Fuc(a1-4)]GlcNAc(b1-2)Man(a1-3)[Gal(b1-3)[Fuc(a1-4)]GlcNAc(b1-2)Man(a1-6)]Man(b1-4)GlcNAc(b1-4)[Fuc(a1-6)]GlcNAc
# Outline: as §1
# [20] = target: Gal(b1-3)[Fuc(a1-4)]GlcNAc(b1-3)Gal(b1-3)[Fuc(a1-4)]GlcNAc
# Outline: as §1
# [21] = target: Gal(b1-3)[Fuc(a1-4)]GlcNAc(b1-3)Gal(b1-4)GlcNAc
# Outline: as §1
# [22] = target: Gal(b1-3)[Fuc(a1-4)]GlcNAc(b1-3)Gal(b1-4)[Fuc(a1-3)]GlcNAc
# Outline: as §1
# [23] = target: Gal(b1-3)[GlcNAc(b1-6)]GalNAc
# Outline: as §1
# [24] = target: Gal(b1-3)[Neu5Ac(a2-6)]GalNAc
# Outline: as §1
# [25] = target: Gal(b1-3)[Neu5Ac(a2-6)]GlcNAc(b1-6)Gal(b1-4)Glc
# Outline: as §1
# [26] = target: Gal(b1-3)[Neu5Ac(b2-6)]GalNAc
# Outline: as §1
# Gal(b1-4)Gal = target: Gal(b1-4)Gal
# Outline: as §1
# [27] = target: Gal(b1-4)GalNAc(a1-3)[Fuc(a1-2)]Gal(b1-4)GlcNAc
# Outline: as §1
# [28] = target: Gal(b1-4)GalNAc(b1-3)[Fuc(a1-2)]Gal(b1-4)GlcNAc
# Outline: as §1
# Gal(b1-4)Glc = target: Gal(b1-4)Glc
# Outline: as §1
# Gal(b1-4)Glc6S = target: Gal(b1-4)Glc6S
# Outline: as §1
# Gal(b1-4)GlcNAc = target: Gal(b1-4)GlcNAc
# Outline: as §1
# [29] = target: Gal(b1-4)GlcNAc(a1-6)Gal(b1-4)GlcNAc
# Outline: as §1
# Gal(b1-4)GlcNAc(b1-2)Man = target: Gal(b1-4)GlcNAc(b1-2)Man
# Outline: as §1
# [30] = target: Gal(b1-4)GlcNAc(b1-2)Man(a1-3)Man(b1-4)GlcNAc(b1-4)GlcNAc
# Outline: as §1
# [31] = target: Gal(b1-4)GlcNAc(b1-2)Man(a1-3)[Gal(b1-4)GlcNAc(b1-2)Man(a1-6)]Man(b1-4)GlcNAc(b1-4)GlcNAc
# Outline: as §1
# [32] = target: Gal(b1-4)GlcNAc(b1-2)Man(a1-3)[Gal(b1-4)GlcNAc(b1-2)Man(a1-6)]Man(b1-4)GlcNAc(b1-4)[Fuc(a1-6)]GlcNAc
# Outline: as §1
# [33] = target: Gal(b1-4)GlcNAc(b1-2)Man(a1-3)[Gal(b1-4)GlcNAc(b1-2)][GlcNAc(b1-4)]Man(b1-4)GlcNAc(b1-4)GlcNAc
# Outline: as §1
# [34] = target: Gal(b1-4)GlcNAc(b1-2)Man(a1-3)[GlcNAc(b1-2)Man(a1-6)]Man(b1-4)GlcNAc(b1-4)GlcNAc
# Outline: as §1
# [35] = target: Gal(b1-4)GlcNAc(b1-2)Man(a1-3)[Man(a1-6)]Man(b1-4)GlcNAc(b1-4)GlcNAc
# Outline: as §1
# [36] = target: Gal(b1-4)GlcNAc(b1-2)Man(a1-6)Man(b1-4)GlcNAc(b1-4)GlcNAc
# Outline: as §1
# [37] = target: Gal(b1-4)GlcNAc(b1-2)Man(a1-6)[GlcNAc(b1-2)Man(a1-3)]Man(b1-4)GlcNAc(b1-4)GlcNAc
# Outline: as §1
# [38] = target: Gal(b1-4)GlcNAc(b1-2)Man(a1-6)[Man(a1-3)]Man(b1-4)GlcNAc(b1-4)GlcNAc
# Outline: as §1
# [39] = target: Gal(b1-4)GlcNAc(b1-2)[Gal(b1-4)GlcNAc(b1-4)]Man(a1-3)[Gal(b1-4)GlcNAc(b1-2)Man(a1-6)]Man(b1-4)GlcNAc(b1-4)GlcNAc
# Outline: as §1
binder,measurement,setting,value
"BC2L-A (Burkholderia cenocepacia), Q1BKJ8_BURCA (protein) ADSQTSSNRAGEFSIPPNTDFRAIFFANAAEQQHIKLFIGDSQEPAAYHKLTTRDGPREATLNSGNGKIRFEVSVNGKPSATDARLAPINGKKSDGSPFTVNFGIVVSEDGHDSDYNDGIVVLQWPIG",glycan array binding signal (z-score),[1],-0.289
same,glycan array binding signal (z-score),[2],-0.269
same,glycan array binding signal (z-score),[3],0.063
same,glycan array binding signal (z-score),[4],-0.273
same,glycan array binding signal (z-score),[5],-0.268
same,glycan array binding signal (z-score),Gal(b1-3)GlcNAc,-0.29
same,glycan array binding signal (z-score),[6],-0.22
same,glycan array binding signal (z-score),[7],0.826
same,glycan array binding signal (z-score),[8],0.112
same,glycan array binding signal (z-score),[9],0.443
same,glycan array binding signal (z-score),[10],-0.295
same,glycan array binding signal (z-score),[11],-0.285
same,glycan array binding signal (z-score),[12],-0.054
same,glycan array binding signal (z-score),[13],-0.22
same,glycan array binding signal (z-score),[14],-0.22
same,glycan array binding signal (z-score),[15],-0.217
same,glycan array binding signal (z-score),[16],-0.219
same,glycan array binding signal (z-score),[17],-0.083
same,glycan array binding signal (z-score),[18],0.136
same,glycan array binding signal (z-score),[19],1.63
same,glycan array binding signal (z-score),[20],0.051
same,glycan array binding signal (z-score),[21],-0.149
same,glycan array binding signal (z-score),[22],-0.086
same,glycan array binding signal (z-score),[23],0.063
same,glycan array binding signal (z-score),[24],-0.061
same,glycan array binding signal (z-score),[25],-0.291
same,glycan array binding signal (z-score),[26],-0.288
same,glycan array binding signal (z-score),Gal(b1-4)Gal,-0.221
same,glycan array binding signal (z-score),[27],-0.29
same,glycan array binding signal (z-score),[28],-0.292
same,glycan array binding signal (z-score),Gal(b1-4)Glc,-0.159
same,glycan array binding signal (z-score),Gal(b1-4)Glc6S,-0.087
same,glycan array binding signal (z-score),Gal(b1-4)GlcNAc,-0.109
same,glycan array binding signal (z-score),[29],-0.299
same,glycan array binding signal (z-score),Gal(b1-4)GlcNAc(b1-2)Man,-0.216
same,glycan array binding signal (z-score),[30],-0.263
same,glycan array binding signal (z-score),[31],-0.226
same,glycan array binding signal (z-score),[32],-0.197
same,glycan array binding signal (z-score),[33],-0.08
same,glycan array binding signal (z-score),[34],-0.16
same,glycan array binding signal (z-score),[35],2.13
same,glycan array binding signal (z-score),[36],-0.182
same,glycan array binding signal (z-score),[37],-0.216
same,glycan array binding signal (z-score),[38],2.65
same,glycan array binding signal (z-score),[39],-0.144
